Measurements taken from the supplement of paper PMC8728848.
The list shows a part of the results.

Legend:
Assay in all cases: glycan array binding signal (z-score within array); higher = stronger binding
Details in all cases: glycan notation: IUPAC condensed, linker removed
[1] = target: Neu5Ac(a2-3)Gal6S(b1-4)[Fuc(a1-3)]GlcNAc
How it was run: (§1)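 The Consortium for Functional Glycomics database supplied 3228 glycan arrays, of which those lacking an available protein sequence were dropped. The binding signal, a within-array Z-score, was averaged across arrays of the same protein sequence and across linkers. Negative scores can be read as non-binding.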

Neu5Ac(a2-3)GalNAc = target: Neu5Ac(a2-3)GalNAc
How it was run: as §1

[2] = target: Neu5Ac(a2-3)GalNAc(b1-4)GlcNAc
How it was run: as §1

[3] = target: Neu5Ac(a2-3)[GalNAc(b1-4)]Gal(b1-4)Glc
How it was run: as §1

[4] = target: Neu5Ac(a2-3)[GalNAc(b1-4)]Gal(b1-4)GlcNAc
How it was run: as §1

[5] = target: Neu5Ac(a2-3)[GalNAc(b1-4)]Gal(b1-4)GlcNAc(b1-3)GalNAc
How it was run: as §1

[6] = target: Neu5Ac(a2-3)[Neu5Ac(a2-6)]GalNAc
How it was run: as §1

Neu5Ac(a2-6)Gal = target: Neu5Ac(a2-6)Gal
How it was run: as §1

[7] = target: Neu5Ac(a2-6)Gal(b1-3)GlcNAc(b1-3)[Gal(b1-4)GlcNAc(b1-6)]Gal(b1-4)Glc
How it was run: as §1

Neu5Ac(a2-6)Gal(b1-4)Glc = target: Neu5Ac(a2-6)Gal(b1-4)Glc
How it was run: as §1

[8] = target: Neu5Ac(a2-6)Gal(b1-4)GlcNAc
How it was run: as §1

[9] = target: Neu5Ac(a2-6)Gal(b1-4)GlcNAc(b1-2)Man
How it was run: as §1

[10] = target: Neu5Ac(a2-6)Gal(b1-4)GlcNAc(b1-2)Man(a1-3)Man(b1-4)GlcNAc(b1-4)GlcNAc
How it was run: as §1

[11] = target: Neu5Ac(a2-6)Gal(b1-4)GlcNAc(b1-2)Man(a1-3)[Gal(b1-4)GlcNAc(b1-2)Man(a1-6)]Man(b1-4)GlcNAc(b1-4)GlcNAc
How it was run: as §1

[12] = target: Neu5Ac(a2-6)Gal(b1-4)GlcNAc(b1-2)Man(a1-3)[GlcNAc(b1-2)Man(a1-6)]Man(b1-4)GlcNAc(b1-4)GlcNAc
How it was run: as §1

[13] = target: Neu5Ac(a2-6)Gal(b1-4)GlcNAc(b1-2)Man(a1-3)[GlcNAc(b1-4)][Neu5Ac(a2-6)Gal(b1-4)GlcNAc(b1-2)Man(a1-6)]Man(b1-4)GlcNAc(b1-4)GlcNAc
How it was run: as §1

[14] = target: Neu5Ac(a2-6)Gal(b1-4)GlcNAc(b1-2)Man(a1-3)[Man(a1-6)]Man(b1-4)GlcNAc(b1-4)GlcNAc
How it was run: as §1

[15] = target: Neu5Ac(a2-6)Gal(b1-4)GlcNAc(b1-2)Man(a1-3)[Neu5Ac(a2-3)Gal(b1-4)GlcNAc(b1-2)Man(a1-6)]Man(b1-4)GlcNAc(b1-4)GlcNAc
How it was run: as §1

[16] = target: Neu5Ac(a2-6)Gal(b1-4)GlcNAc(b1-2)Man(a1-3)[Neu5Ac(a2-6)Gal(b1-4)GlcNAc(b1-2)Man(a1-6)]Man(b1-4)GlcNAc(b1-4)GlcNAc
How it was run: as §1

[17] = target: Neu5Ac(a2-6)Gal(b1-4)GlcNAc(b1-2)Man(a1-3)[Neu5Ac(a2-6)Gal(b1-4)GlcNAc(b1-2)Man(a1-6)]Man(b1-4)GlcNAc(b1-4)[Fuc(a1-6)]GlcNAc
How it was run: as §1

[18] = target: Neu5Ac(a2-6)Gal(b1-4)GlcNAc(b1-2)Man(a1-6)Man(b1-4)GlcNAc(b1-4)GlcNAc
How it was run: as §1

[19] = target: Neu5Ac(a2-6)Gal(b1-4)GlcNAc(b1-2)Man(a1-6)[Gal(b1-4)GlcNAc(b1-2)Man(a1-3)]Man(b1-4)GlcNAc(b1-4)GlcNAc
How it was run: as §1

[20] = target: Neu5Ac(a2-6)Gal(b1-4)GlcNAc(b1-2)Man(a1-6)[GlcNAc(b1-2)Man(a1-3)]Man(b1-4)GlcNAc(b1-4)GlcNAc
How it was run: as §1

[21] = target: Neu5Ac(a2-6)Gal(b1-4)GlcNAc(b1-2)Man(a1-6)[Man(a1-3)]Man(b1-4)GlcNAc(b1-4)GlcNAc
How it was run: as §1

[22] = target: Neu5Ac(a2-6)Gal(b1-4)GlcNAc(b1-2)[Neu5Ac(a2-6)Gal(b1-4)GlcNAc(b1-4)]Man(a1-3)[GlcNAc(b1-4)][Neu5Ac(a2-6)Gal(b1-4)GlcNAc(b1-2)[Neu5Ac(a2-6)Gal(b1-4)GlcNAc(b1-6)]Man(a1-6)]Man(b1-4)GlcNAc(b1-4)GlcNAc
How it was run: as §1

[23] = target: Neu5Ac(a2-6)Gal(b1-4)GlcNAc(b1-2)[Neu5Ac(a2-6)Gal(b1-4)GlcNAc(b1-4)]Man(a1-3)[GlcNAc(b1-4)][Neu5Ac(a2-6)Gal(b1-4)GlcNAc(b1-4)Man(a1-6)]Man(b1-4)GlcNAc(b1-4)GlcNAc
How it was run: as §1

[24] = target: Neu5Ac(a2-6)Gal(b1-4)GlcNAc(b1-2)[Neu5Ac(a2-6)Gal(b1-4)GlcNAc(b1-6)]Man(a1-6)[Neu5Ac(a2-6)Gal(b1-4)GlcNAc(b1-2)Man(a1-3)][GlcNAc(b1-4)]Man(b1-4)GlcNAc(b1-4)GlcNAc
How it was run: as §1

[25] = target: Neu5Ac(a2-6)Gal(b1-4)GlcNAc(b1-3)Gal(b1-3)GlcNAc
How it was run: as §1

[26] = target: Neu5Ac(a2-6)Gal(b1-4)GlcNAc(b1-3)Gal(b1-4)GlcNAc
How it was run: as §1

[27] = target: Neu5Ac(a2-6)Gal(b1-4)GlcNAc(b1-3)Gal(b1-4)GlcNAc(b1-2)Man(a1-3)[Neu5Ac(a2-6)Gal(b1-4)GlcNAc(b1-3)Gal(b1-4)GlcNAc(b1-2)Man(a1-6)]GalNAc
How it was run: as §1

[28] = target: Neu5Ac(a2-6)Gal(b1-4)GlcNAc(b1-3)Gal(b1-4)GlcNAc(b1-3)Gal(b1-4)GlcNAc
How it was run: as §1

[29] = target: Neu5Ac(a2-6)Gal(b1-4)GlcNAc(b1-3)Gal(b1-4)GlcNAc(b1-3)Gal(b1-4)GlcNAc(b1-2)Man(a1-3)[Neu5Ac(a2-6)Gal(b1-4)GlcNAc(b1-3)Gal(b1-4)GlcNAc(b1-3)Gal(b1-4)GlcNAc(b1-2)Man(a1-6)]GalNAc
How it was run: as §1

[30] = target: Neu5Ac(a2-6)Gal(b1-4)GlcNAc(b1-3)Gal(b1-4)GlcNAc(b1-3)GalNAc
How it was run: as §1

[31] = target: Neu5Ac(a2-6)Gal(b1-4)GlcNAc(b1-3)Gal(b1-4)GlcNAc(b1-3)[Neu5Ac(a2-6)Gal(b1-4)GlcNAc(b1-3)Gal(b1-4)GlcNAc(b1-6)]GalNAc
How it was run: as §1

[32] = target: Neu5Ac(a2-6)Gal(b1-4)GlcNAc(b1-3)Gal(b1-4)GlcNAc(b1-6)[Gal(b1-3)]GalNAc
How it was run: as §1

[33] = target: Neu5Ac(a2-6)Gal(b1-4)GlcNAc(b1-3)Gal(b1-4)[Fuc(a1-3)]GlcNAc(b1-3)Gal(b1-4)[Fuc(a1-3)]GlcNAc
How it was run: as §1

[34] = target: Neu5Ac(a2-6)Gal(b1-4)GlcNAc(b1-3)GalNAc
How it was run: as §1

[35] = target: Neu5Ac(a2-6)Gal(b1-4)GlcNAc(b1-3)[Neu5Ac(a2-6)Gal(b1-4)GlcNAc(b1-6)]GalNAc
How it was run: as §1

[36] = target: Neu5Ac(a2-6)Gal(b1-4)GlcNAc(b1-6)GalNAc
How it was run: as §1

[37] = target: Neu5Ac(a2-6)Gal(b1-4)GlcNAc(b1-6)[Gal(b1-3)GlcNAc(b1-3)]Gal(b1-4)Glc
How it was run: as §1

[38] = target: Neu5Ac(a2-6)Gal(b1-4)GlcNAc(b1-6)[Gal(b1-3)]GalNAc
How it was run: as §1

[39] = target: Neu5Ac(a2-6)Gal(b1-4)GlcNAc6S
How it was run: as §1

Neu5Ac(a2-6)GalNAc = target: Neu5Ac(a2-6)GalNAc
How it was run: as §1

[40] = target: Neu5Ac(a2-6)GalNAc(b1-4)GlcNAc
How it was run: as §1

[41] = target: Neu5Ac(a2-6)GalNAc(b1-4)GlcNAc6S
How it was run: as §1

B1: CML1 (Coprinopsis cinerea) (protein)
chain: MAIFHTGSELFIITRGPGKLTLLTWGGLNNLRSVIGAIPTENTGVTKWAVSFSHNYTRFSFIWEGQGEACYQIGNGLTRSPVGRSWSSSSTIHWGSSTVITEDVTSVVPGAVNRDKVTTAYALPDNL
- glycan array binding signal (z-score) [1]: 3.49
- glycan array binding signal (z-score) (Neu5Ac(a2-3)GalNAc): -0.344
- glycan array binding signal (z-score) [2]: -0.345
- glycan array binding signal (z-score) [3]: -0.339
- glycan array binding signal (z-score) [4]: -0.353
- glycan array binding signal (z-score) [5]: -0.315
- glycan array binding signal (z-score) [6]: -0.338
- glycan array binding signal (z-score) (Neu5Ac(a2-6)Gal): -0.348
- glycan array binding signal (z-score) [7]: -0.348
- glycan array binding signal (z-score) (Neu5Ac(a2-6)Gal(b1-4)Glc): -0.343
- glycan array binding signal (z-score) [8]: -0.352
- glycan array binding signal (z-score) [9]: -0.315
- glycan array binding signal (z-score) [10]: -0.332
- glycan array binding signal (z-score) [11]: -0.336
- glycan array binding signal (z-score) [12]: -0.337
- glycan array binding signal (z-score) [13]: -0.351
- glycan array binding signal (z-score) [14]: -0.308
- glycan array binding signal (z-score) [15]: -0.324
- glycan array binding signal (z-score) [16]: -0.336
- glycan array binding signal (z-score) [17]: -0.296
- glycan array binding signal (z-score) [18]: -0.324
- glycan array binding signal (z-score) [19]: -0.337
- glycan array binding signal (z-score) [20]: -0.359
- glycan array binding signal (z-score) [21]: -0.319
- glycan array binding signal (z-score) [22]: -0.321
- glycan array binding signal (z-score) [23]: -0.331
- glycan array binding signal (z-score) [24]: -0.334
- glycan array binding signal (z-score) [25]: -0.35
- glycan array binding signal (z-score) [26]: -0.361
- glycan array binding signal (z-score) [27]: -0.308
- glycan array binding signal (z-score) [28]: -0.315
- glycan array binding signal (z-score) [29]: -0.299
- glycan array binding signal (z-score) [30]: -0.347
- glycan array binding signal (z-score) [31]: -0.324
- glycan array binding signal (z-score) [32]: -0.314
- glycan array binding signal (z-score) [33]: -0.159
- glycan array binding signal (z-score) [34]: -0.347
- glycan array binding signal (z-score) [35]: -0.323
- glycan array binding signal (z-score) [36]: -0.317
- glycan array binding signal (z-score) [37]: -0.355
- glycan array binding signal (z-score) [38]: -0.323
- glycan array binding signal (z-score) [39]: -0.334
- glycan array binding signal (z-score) (Neu5Ac(a2-6)GalNAc): -0.331
- glycan array binding signal (z-score) [40]: -0.351
- glycan array binding signal (z-score) [41]: -0.33
